# Reference: PubChem BioAssay AID686978 (National Center for Advancing Translational Sciences (NCATS), 2013)
# Hit rate of the full screen: of about 420,000 compounds, about 64,000 (15%) were called active. Inconclusive means that the source gave no clear call. Such entries were picked first, then a sample of the others. Calls follow the shape of the dose curve; as a rule, active = well fitted inhibition curve with a large enough effect; inconclusive = small, poorly fitted or top-dose-only effect; inactive = flat fitted curve, though single readings scatter. Potencies of inconclusive entries are left out as doubtful fits.
# Assay: qHTS for Inhibitors of human tyrosyl-DNA phosphodiesterase 1 (TDP1): qHTS in cells in absence of CPT; also: nearly all actives have a fitted effect of over 55% in size
# Conditions: DT40 Tdp1-/- hTDP1 cells, no CPT, ATP luminescence, 48 h; activity change, negative = growth inhibition: at 46.2 µM (top of the series) unless noted
# Method in brief: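 DT40 Tdp1-/-;hTDP1 cells, no CPT (DMSO vehicle only), 400 cells/well; compounds pin-transferred; ≥48 hr, 37 °C; CellTiter-Glo 30 min RT dark, luminescence read.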
# % is scaled to controls: 0 for no effect and ±100 for the full control effect; potency is read from the fitted curve at half-maximal effect; tags tell the direction and shape of the fitted curve.
SMILES,Potency,"activity change, negative = growth inhibition"
O=[N+]([O-])c1cccc2c([N+](=O)[O-])cccc12,"inconclusive [inhibitor, single point]",–
CN(C)CCSC1c2ccccc2CSc2ccccc21 (centres undefined),"inconclusive [inhibitor, single point]",–
CC1(C)N([O])C(c2ccc(C(=O)O)cc2)=[N+]([O-])C1(C)C,–,inactive: -24.6%
O=C1NC(=O)C(=Cc2ccc(-c3ccc(S(=O)(=O)N4CCOCC4)cc3)o2)C(=O)N1,"inconclusive [inhibitor, single point]",–
O=c1[nH]c(=S)n(-c2ccccc2F)c(O)c1C=NCc1ccco1,–,inactive: 2.18%
CCCCC(=O)OCC(=O)[C@H]1[C@H](C)C[C@H]2[C@@H]3C[C@H](F)C4=CC(=O)C=C[C@]4(C)[C@@]3(F)[C@@H](O)C[C@@]21C,"inconclusive [inhibitor, single point]",–
COc1cccc(NC(=O)N2CCc3nc(Nc4ccc(C(C)C)cc4)ncc3C2)c1,"inconclusive [inhibitor, single point]",–
CC(C)(C)NC[C@H](O)COc1cccc2[nH]c(C#N)cc12,–,inactive: -14.6%
COP(=O)(OC)OC=C(Cl)Cl,active: 11.9 µM,–
CSc1ncc(/C=C2/C(=O)NC(=O)N(c3ccc(Cl)cc3)C2=O)cn1,–,inactive: -10.9%
c1cc2c(cc1-c1ccc3c(c1)OCO3)CNCc1cnnn1-2,"inconclusive [inhibitor, single point]",–
Cc1cc(C)c(N)cc1C,"inconclusive [inhibitor, single point]",–
O=C(CNC(=O)c1ccccc1)Nc1ccc(Br)cc1C(=O)c1ccccc1,"inconclusive [inhibitor, single point]",–
C[C@H]1CC[C@]2(NC1)O[C@H]1C[C@H]3[C@@H]4CC[C@H]5C[C@@H](O)CC[C@]5(C)[C@H]4CC[C@]3(C)[C@H]1[C@@H]2C,"inconclusive [inhibitor, single point]",–
CCN(CC)C(=O)Oc1ccc(OC(=O)N(CC)CC)cc1,"inconclusive [inhibitor, single point]",–
COc1ccc(/C=C2/C(=O)N(c3ccccc3)N=C2C)cc1,"inconclusive [inhibitor, single point]",–
C[C@H]1[C@@H](c2ccccc2)O[C@@H](c2ccccc2Br)N1C,"inconclusive [inhibitor, partial curve]",–
N#CC(C#N)=NNc1ccc(S(N)(=O)=O)cc1,"inconclusive [inhibitor, single point]",–
Cc1ccc(C(=O)N2CC2C)cc1 (centres undefined),–,inactive: -19%
Cc1ccccc1-n1c(CNc2ccccc2)nc2ccccc2c1=O,"inconclusive [inhibitor, single point]",–
O=C(CCc1nnc2ccc(NCc3ccccc3)nn12)N1CCC2(CC1)OCCO2,–,inactive: 19.2%
COC(=O)C1=C(c2cccc(C#N)c2)C[C@@H]2CC[C@H]1N2C(=O)N1CCOCC1,"inconclusive [inhibitor, partial curve]",–

SMILES,Potency,"activity change, negative = growth inhibition"
CC1CCCC(NC(=O)CNC(=S)N2CC3CC(C2)c2cccc(=O)n2C3)C1C (centres undefined),–,inactive: 19.8%
CCC1=CCN(CCc2c(C)[nH]c3ccccc23)CC1,active: 0.58 µM,–
O=C1NC(=O)N(Cc2ccccc2)C(=O)/C1=C/c1cnc(-c2ccccc2)nc1,"inconclusive [inhibitor, single point]",–
C=CCN1C(=O)/C(=C/c2ccc3c(c2)CCCN3CCC)C(=O)NC1=S,"inconclusive [inhibitor, single point]",–
C[C@H](CO)N1C[C@H](C)[C@H](CN(C)C(=O)Oc2cccc3ccccc23)OCc2cnnn2CCCC1=O,–,inactive: -18.6%
Oc1ccc(/C=N/NP(=S)(c2ccccc2)c2ccccc2)cc1,–,inactive: -14.9%
Cc1cccc(-n2c(C)nc3ccccc3c2=O)c1C,active: 20.6 µM,–
CC(C)C1CN1CC(O)Cn1ccnc1[N+](=O)[O-] (centres undefined),"inconclusive [inhibitor, partial curve]",–
Cc1oc(-c2ccccc2)nc1CN1C(=O)C(C)N=C(c2ccccc2F)c2cc(Cl)ccc21 (centres undefined),"inconclusive [inhibitor, single point]",–
COC(=O)C1C2c3ccccc3OC1(C)N=c1s/c(=C/c3cnn(C)c3C)c(=O)n12 (centres undefined),"inconclusive [inhibitor, single point]",–
CC(C)(C)C(=O)OC1=CN(Cc2ccccc2)S(=O)(=O)c2ccccc21,"inconclusive [inhibitor, single point]",–
Fc1ccccc1CSc1ncnc2c1ncn2C1CCCO1 (centres undefined),"inconclusive [inhibitor, single point]",–
O=C(CN1CC=C(c2ccccc2)CC1)NC(=O)NCc1ccccc1,"inconclusive [inhibitor, single point]",–
O=C1/C(=C/c2cccc([N+](=O)[O-])c2)N2CCC1CC2,–,inactive: -36.8%
COC(=O)C1=C(c2ccc(F)cc2F)C[C@@H]2CC[C@H]1N2C(=O)NCCCOC(C)C,–,inactive: -17.8%
CCOc1ccccc1Oc1coc2cc(OC(=O)c3ccco3)ccc2c1=O,"inconclusive [inhibitor, full curve]",–
O=C(C(=O)N1CCOCC1)c1cn(Cc2ccccc2)c2ccccc12,–,inactive: 4.69%
Cc1[nH]n(-c2ccccc2)c(=O)c1C(C[N+](=O)[O-])c1ccccc1Cl (centres undefined),active: 29.1 µM,–
COc1ccc(CN2C(=O)NC(=O)/C(=C\c3cc(OC)c(OC)c(OC)c3)C2=O)cc1,"inconclusive [inhibitor, single point]",–
C=CCn1c(C)c(C=C2C(=O)NC(=O)NC2=O)c2ccccc21,"inconclusive [inhibitor, single point]",–
O=C(NN=Cc1ccc2c(c1)CCC2)c1cccc([N+](=O)[O-])c1,"inconclusive [inhibitor, partial curve]",–
COc1cccc(N2C(=O)NC(=O)/C(=C/c3ccc4c(c3)Cc3ccccc3-4)C2=O)c1,"inconclusive [inhibitor, single point]",–
